First the molecules themselves.
B1: LINE1-mini (parent)
chain: GGCAGAGCUCAACACAGCGUGGCAAAGUGGCUGUGGCUAGACUGCC

Read counts are not given, so values of variants with three or more changes are uncertain.

The source of these data is the RNAGym collection of RNA variant scans (doi:10.7554/elife.90254).

The variants in the series derive from B1. As to the kind of experiment: self-cleavage, relative activity (ratio to wild type); higher = more cleavage; in vitro, sequencing; the parent is a self-cleaving ribozyme.
As for A4G G5A C31G U34A A39C, the self-cleavage came out at 0.03.

For A4C G22C C31U, the self-cleavage came out at 0.04.

For A4G C10A C15U C23A G29U G36U C46A, the self-cleavage came out at 0.01.

With A4G C15U A25C G36U, the self-cleavage was determined as 0.19.

With A4G A11G C15G U32G, the self-cleavage amounted to 0.03.

Regarding A4G C13U A14C G22A C46G, the self-cleavage is 0.07.

For the variant A4C A14U G17A G21U, the self-cleavage came to 0.11.

For A4C C8U C23A C31U, the self-cleavage is 0.02.

Consider A4C C10G G22A, for which the self-cleavage was determined as 0.03.

On to A4G C13U G17C G30C C45A, for which the self-cleavage turned out to be 0.03.

For A4C G29C C31U, the self-cleavage was determined as 0.01.

Take A4G C13U C45U: the self-cleavage stood at 0.65.

A4C C18A C31U: the self-cleavage came out at 0.04.

Consider A4G C10G G35C A39U A41C C45U, for which the self-cleavage was determined as 0.01.

Regarding A4C A16C G40U G44U, the self-cleavage is 0.11.

As to A4G C13G G22U A39G C42G U43A C45U, the self-cleavage was determined as 0.03.

Take A4G C13U G33U: the self-cleavage is 0.05.

For the variant A4G C8G C18G C31A, the self-cleavage was 0.09.

As to A4C C8G U20C G33U, the self-cleavage is 0.83.

In the case of A4G G5A A14C U34G, the self-cleavage was 0.09.

In the case of A4C C15G G19C C23G, the self-cleavage was found to be 0.04.

Take A4G C31G G33U: the self-cleavage was 0.14.

In the case of A4C A24G G29A A41C, the self-cleavage is 0.11.

As for A4G A12C C15U A24U U28A, the self-cleavage worked out at 0.05.

Turning to A4G G5U G22U G30U G40U, the self-cleavage was 0.09.

On to A4C G22A G36U C42G, for which the self-cleavage was determined as 0.

Turning to A4C C10A G30A, the self-cleavage was 0.03.

As for A4C C10A C15G G29U C31A C42A C45G, the self-cleavage was 0.

In the case of A4C U20A G22C U28C C42G U43C, the self-cleavage turned out to be 0.01.

For A4G G5A G40A, the self-cleavage stood at 0.17.

Consider A4C G5C A6C G40U C45A, for which the self-cleavage worked out at 0.14.

Turning to A4C G5U C8G, the self-cleavage is 0.44.

A4C U20G U34A: the self-cleavage came out at 0.03.

For A4G A11G C15U C42U, the self-cleavage stood at 0.03.

With A4G A14G C15G G21U, the self-cleavage came to 0.24.

A4G C13A G17A: the self-cleavage was found to be 0.01.

With A4C G21C U32A, the self-cleavage worked out at 0.35.

A4G C10G G27U C31U G44U: the self-cleavage came out at 0.02.

With A4G A24G G35U, the self-cleavage stood at 0.37.

For A4C A14G G29U C45G, the self-cleavage came to 0.01.

A4G A26C G36U G44U: the self-cleavage amounted to 0.19.

For A4G G7C G21C G29U C31U, the self-cleavage stood at 0.04.

Consider A4C C18U G19C, for which the self-cleavage turned out to be 0.03.

As for A4C C13A C18A G44U, the self-cleavage is 0.

As for A4G G5U U9C A24C C31A G33U, the self-cleavage is 0.02.

Turning to A4G C31A U34G, the self-cleavage was found to be 0.03.

For the variant A4C A14C C15U G30A, the self-cleavage came to 0.1.

As for A4C U20G U32A, the self-cleavage came out at 0.05.

For A4G G7C G19A C46U, the self-cleavage is 0.1.

For A4C C10A A11U C13A G21C C31G, the self-cleavage came to 0.02.

For A4G G5U C15A G29U, the self-cleavage worked out at 0.11.

With A4C G21A C45A, the self-cleavage amounted to 0.67.

For A4C A11U G19C, the self-cleavage came to 0.03.

As for A4C C15A G17A G44C, the self-cleavage amounted to 0.07.

Consider A4C C18U C37U, for which the self-cleavage came to 0.19.

Consider A4C A16C G19C, for which the self-cleavage is 0.08.

As for A4C A16U G29U G35A, the self-cleavage came to 0.06.

With A4C A25U C31A U38G, the self-cleavage came to 0.01.

As to A4G C15G G36C, the self-cleavage was 0.07.

As for A4C G22A G35U A41C, the self-cleavage turned out to be 0.05.

A4G G7C A16G: the self-cleavage worked out at 0.13.

With A4C G27A C42A C46A, the self-cleavage was determined as 0.06.

On to A4G G5U C45G, for which the self-cleavage worked out at 0.02.

Regarding A4G A12U A41G, the self-cleavage is 0.14.

Consider A4C A25C A41U, for which the self-cleavage is 0.04.

As to A4G C23U U28A, the self-cleavage is 0.11.

For the variant A4G G21A U32C A39G, the self-cleavage amounted to 0.12.

Consider A4G A14C A25C G33U C42U, for which the self-cleavage came to 0.07.

For A4C G7A C10A A16C, the self-cleavage was determined as 0.03.

On to A4G A6G G40U C46A, for which the self-cleavage came out at 0.1.

With A4G C10G C37G, the self-cleavage came out at 0.01.

As for A4C G21C U38G, the self-cleavage was found to be 0.02.

With A4G G5A A12C A25U U38A, the self-cleavage is 0.01.

In the case of A4C G30U U34A C42U C45A, the self-cleavage worked out at 0.05.

Take A4G G17U G27C G35A: the self-cleavage worked out at 0.18.

For the variant A4C G7A C18A G35C A39U, the self-cleavage is 0.02.

In the case of A4G A39G C45U C46U, the self-cleavage turned out to be 0.13.

Take A4C C15G G30U: the self-cleavage was determined as 0.01.

A4C A24U G27U U28G G44U: the self-cleavage turned out to be 0.02.

As for A4G C8U A16G G29U G30U C31A, the self-cleavage was determined as 0.15.

A4G A12U A16C A39C: the self-cleavage was determined as 0.01.

For A4C G5A C13U, the self-cleavage is 0.04.

Regarding A4G G7C A12G, the self-cleavage was 0.22.

In the case of A4G A26U G27U, the self-cleavage turned out to be 0.57.

As for A4C C23G C37G, the self-cleavage amounted to 0.31.

Consider A4C C10U A24U G44U, for which the self-cleavage was 0.03.

Turning to A4C C10A A24U G29U G35A C45U, the self-cleavage was determined as 0.01.

As to A4G G19C G21U, the self-cleavage was 0.2.

For the variant A4C U9G C10U G17A U20G G27C, the self-cleavage is 0.05.

For the variant A4G G5C C15G G29A C31A, the self-cleavage turned out to be 0.

For A4G C10A C13U C18A G22U G30C G35A, the self-cleavage was 0.02.

Consider A4G G5U C8G G17A C23A C31G, for which the self-cleavage is 0.03.

For A4C A11C G21C, the self-cleavage was 0.05.

As for A4C C18A A25G G27A U43C C45U, the self-cleavage stood at 0.01.

Regarding A4G C8U A12G G17C G27U U34G U43G C46G, the self-cleavage was 0.14.

A4C C37U A41C G44U: the self-cleavage turned out to be 0.08.

Turning to A4G G5A G27U G40A, the self-cleavage is 0.07.

In the case of A4C C8A A24C G40U, the self-cleavage turned out to be 0.06.

Take A4G A12G C23A G29C C37A: the self-cleavage is 0.26.

For the variant A4G G17C G36A, the self-cleavage worked out at 0.22.

For A4C A14U C37U A39G, the self-cleavage worked out at 0.14.

Consider A4C C31G U38A G40U C45G, for which the self-cleavage amounted to 0.01.

Consider A4C C8A A16U G40A, for which the self-cleavage came out at 0.04.

Take A4C G7A A14U: the self-cleavage came to 0.01.

For the variant A4G A26U G35A, the self-cleavage came to 0.12.

Take A4G C13G G44U C46U: the self-cleavage is 0.01.

Turning to A4C C23A U43A, the self-cleavage amounted to 0.02.

Regarding A4G G17U U28C, the self-cleavage worked out at 0.2.

As for A4G C10G U20A G22A U28A G40A, the self-cleavage worked out at 0.01.

With A4G A12C G40U, the self-cleavage stood at 0.03.

Turning to A4C A24G A26U U32G, the self-cleavage was found to be 0.05.

As for A4G A11C A16C G27U, the self-cleavage stood at 0.02.

With A4C G17U C18U, the self-cleavage turned out to be 0.05.

A4G C18G G36U C37A U38A: the self-cleavage worked out at 0.54.

Consider A4C C8G U28G, for which the self-cleavage was determined as 0.05.

For A4C G7C G33U, the self-cleavage came to 0.14.

As for A4G C15A C18U, the self-cleavage worked out at 0.09.

Take A4G C8A G35C U38A A41U: the self-cleavage was 0.05.

In the case of A4C G19A A24U U38C A39C, the self-cleavage came to 0.07.

On to A4C A11C C18G G22A G33A, for which the self-cleavage is 0.05.

With A4C U38A A41G, the self-cleavage came to 0.07.

For the variant A4G G7U G19A G21U, the self-cleavage came to 0.02.

A4G A6G C15A G19U U32G G40A: the self-cleavage is 0.02.

Turning to A4G A6G C15U G22C G27U, the self-cleavage came to 0.05.

As for A4G G7C A26U, the self-cleavage stood at 0.03.

On to A4C C10U A12G C23A, for which the self-cleavage was determined as 0.03.

In the case of A4G C13A G22C U43G, the self-cleavage is 0.03.

Consider A4G G7A C42A, for which the self-cleavage is 0.49.

For A4G C8A A26U, the self-cleavage was 0.84.

For the variant A4C U20C C31A G36C, the self-cleavage was determined as 0.04.

Consider A4C G27C U28G G36U C37A U43C, for which the self-cleavage is 0.01.

Regarding A4C C18U U20C U43C, the self-cleavage stood at 0.05.

As to A4C A12G G29U, the self-cleavage is 0.13.

As for A4C C15A C18G, the self-cleavage was determined as 0.1.

In the case of A4C A39U C45U, the self-cleavage turned out to be 0.06.

Consider A4G C10U C13U, for which the self-cleavage is 0.12.

For the variant A4G C13G C15G C37G C46G, the self-cleavage came out at 0.04.

For the variant A4G A26U G44U, the self-cleavage was determined as 0.12.

Take A4C A26U G33C U34G: the self-cleavage was determined as 0.09.

For the variant A4C A12G G17C A39U, the self-cleavage was found to be 0.01.

For A4G A14G G19A G35C G40A C46G, the self-cleavage is 0.02.

As to A4G G7U A16C A24C C31A U38G A41U, the self-cleavage is 0.01.

For A4C A14G C23G, the self-cleavage came out at 0.39.

For A4G G5U G7C A11C U38C, the self-cleavage was found to be 0.01.

Regarding A4C U20C U34A, the self-cleavage came out at 0.04.

Turning to A4G C13G A14C, the self-cleavage was determined as 0.01.

For the variant A4C C8U C13G G33U A39G, the self-cleavage came out at 0.05.

For A4C G19U A41G, the self-cleavage worked out at 0.

For A4G C10A C13U C42U, the self-cleavage was 0.01.

As for A4G G5A G19U C45G, the self-cleavage turned out to be 0.01.

As for A4C G30A C42G, the self-cleavage was 0.03.

For the variant A4G G19C C31U C37G, the self-cleavage was 0.05.

In the case of A4G A11G G35U, the self-cleavage was determined as 0.03.

In the case of A4C C31A A41C, the self-cleavage is 0.04.

As to A4G C13A C18A G21A C37U C46A, the self-cleavage was found to be 0.04.

For the variant A4G G5C A26G, the self-cleavage amounted to 0.02.

On to A4G A11U A12C A14C C23G U32A, for which the self-cleavage amounted to 0.

As for A4C G7U G17C G27U U32G A39G, the self-cleavage is 0.09.

For A4G G17A G36C, the self-cleavage is 0.01.

On to A4C G33C G40C C45A, for which the self-cleavage came to 0.02.

For the variant A4C U9C U38A, the self-cleavage amounted to 0.02.

Regarding A4G A16U G30A, the self-cleavage turned out to be 0.08.

Take A4G G7A G40C: the self-cleavage was found to be 0.3.

On to A4C G17U G40A, for which the self-cleavage turned out to be 0.08.

Regarding A4G A6U G22U U34G G40C C45U, the self-cleavage was determined as 0.13.

For A4G C18A U32A G36C A39U, the self-cleavage is 0.02.

With A4G A6C G19A, the self-cleavage is 0.14.
